Data on 1 molecule can be found in US20200095302A1 (WAKE FOREST UNIVERSITY HEALTH SCIENCES, published 2020).

In the experiment the target is T1, IL-13Rα2 (human, UniProt Q14627 27-380).
T1 construct: whole, on cells; also called IL-13Rα2 receptor
T1 sequence (looked up): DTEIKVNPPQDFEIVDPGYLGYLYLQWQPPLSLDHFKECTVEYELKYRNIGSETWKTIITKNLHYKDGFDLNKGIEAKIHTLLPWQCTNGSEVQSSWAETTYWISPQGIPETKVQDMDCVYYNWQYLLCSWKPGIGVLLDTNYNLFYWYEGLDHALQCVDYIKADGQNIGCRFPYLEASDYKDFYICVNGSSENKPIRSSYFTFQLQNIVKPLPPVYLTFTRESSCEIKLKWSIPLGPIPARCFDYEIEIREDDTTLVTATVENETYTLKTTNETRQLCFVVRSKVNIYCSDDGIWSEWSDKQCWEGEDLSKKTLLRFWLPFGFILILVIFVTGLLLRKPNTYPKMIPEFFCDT
Nature of the experiment: biotin-conjugated proteins on GBM cells; method not given.

B1: biotin-conjugated IL-13.E13K (ligand)
chain: not shown
Take B1: the binding result is on record as “binds”.
